From PubChem BioAssay AID686978 (National Center for Advancing Translational Sciences (NCATS), 2013)
Hit rate of the full screen: of about 420,000 compounds, about 64,000 (15%) were called active. The inconclusive results got no clear call from the source; some entries with a clear call stand among them for comparison. Calls follow the shape of the dose curve; as a rule, active = well fitted inhibition curve with a large enough effect; inconclusive = small, poorly fitted or top-dose-only effect; inactive = flat fitted curve, though single readings scatter. Potencies of inconclusive entries are left out as doubtful fits.

Assay: qHTS for Inhibitors of human tyrosyl-DNA phosphodiesterase 1 (TDP1): qHTS in cells in absence of CPT; also: nearly all actives have a fitted effect of over 55% in size
Details: DT40 Tdp1-/- hTDP1 cells, no CPT, ATP luminescence, 48 h; activity change, negative = growth inhibition: at 46.2 µM (top of the series)
In short: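 Luminescent ATP content (CellTiter-Glo) served as the growth readout. Knockout chicken DT40 cells expressing human TDP1 were exposed to compounds without camptothecin for a minimum 48 hr at 37 °C.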
% is scaled to controls: 0 for no effect and ±100 for the full control effect; potency is read from the fitted curve at half-maximal effect; tags tell the direction and shape of the fitted curve.

| Compound | Potency | activity change, negative = growth inhibition |
| --- | --- | --- |
| Cc1ccc(-n2nc(C(C)(C)C)cc2NC(=O)Nc2ccc(OCCN3CCOCC3)c3ccccc23)cc1 | inconclusive [inhibitor, single point] | – |
| Cc1cn([C@H]2C[C@H](O)[C@@H](CNCc3ccc(-c4cc(Cl)ccc4C(F)(F)F)o3)O2)c(=O)[nH]c1=O | inconclusive [inhibitor, single point] | – |
| O=C(CCN1CCc2ccccc2C1)Nc1ccc(F)c(F)c1 | inconclusive [inhibitor, single point] | – |
| COc1ccc(N/C=C2\C(=O)CCc3c2oc2cc(Cl)c(O)c(Cl)c32)cc1 | inconclusive [inhibitor, single point] | – |
| Nc1c(Cl)cc(-c2csc(N3CCCC3c3nc4cc(Cl)c(Cl)cc4n3CCCO)n2)cc1Cl (stereo not drawn) | inconclusive [inhibitor, single point] | – |
| O=C(Nc1ccc(Cl)cn1)c1ccc(-c2ccc(Cl)c(Cl)c2)o1 | – | inactive: -22.3% |
| CC(C)COc1nc2c(c(=O)n(C)c(=O)n2C)n1C | – | inactive: -10.6% |
| COc1ccc(OCCn2nnc3sc4c(c3c2=O)CCC(C(C)(C)C)C4)cc1 (stereo not drawn) | inconclusive [inhibitor, partial curve, poor fit] | – |
| COc1ccc(CN2CCOc3c(O)cc(-c4cc(C)c5ccc(F)cc5n4)cc3C2)c(O)c1 | inconclusive [inhibitor, single point] | – |
| S=c1[nH]nc(-c2ccccn2)n1/N=C/c1cccs1 | – | inactive: -22.8% |
| O=C(CCNC(=O)C1CCN(S(=O)(=O)c2ccccc2)CC1)NCc1ccc(Cl)cc1 | inconclusive [inhibitor, single point] | – |
| O=C(/C=C/c1ccco1)Oc1ccc(C(=S)N2CCOCC2)cc1 | inconclusive [inhibitor, single point] | – |
| O=C(Nc1ncccc1O)c1cccc(S(=O)(=O)N2CCCC2)c1 | – | inactive: -2.69% |
| O=C(OCC(=O)N1CCN(S(=O)(=O)c2ccc(Cl)cc2)CC1)c1ccc([N+](=O)[O-])o1 | inconclusive [inhibitor, single point] | – |
| CCNc1nc(OC)nc(Oc2ccc(=O)n(-c3ccccc3)n2)n1 | – | inactive: -7.59% |
| Cc1ccc(S(=O)(=O)c2c(C)cc(C)nc2Oc2cccc(C)c2C)cc1 | active: 18.4 µM | – |
| CC(=O)C(c1ccccc1)C(c1ccccc1)C(C)[N+](=O)[O-] (stereo not drawn) | inconclusive [inhibitor, partial curve] | – |
| CC(=O)NCCn1c(SCc2ccccc2F)nc2ccccc2c1=O | active: 20.6 µM | – |
| COCCn1c(-c2cc(OC)c(OC)c(OC)c2)nc2oc3ccccc3c(=O)c2c1=O | inconclusive [inhibitor, partial curve] | – |
| CCCCCn1c(=O)[nH]c2cc(C(=O)NCCN(C)CCCC)ccc2c1=O | inconclusive [inhibitor, partial curve, poor fit] | – |
| COc1ccccc1COCC(O)CNCCc1ccc(C(F)(F)F)cc1 (stereo not drawn) | inconclusive [inhibitor, partial curve, poor fit] | – |
| COc1ccccc1N1CCN(CC(O)COc2ccc3c(c2)CCC3)CC1 (stereo not drawn) | inconclusive [inhibitor, single point] | – |
| O=C(NCc1ccc(F)cc1F)[C@@H]1CCCN1C(=O)[C@@H]1CCCN1C(=O)c1ccc(Cl)cc1 | inconclusive [inhibitor, single point] | – |

| Compound | Potency | activity change, negative = growth inhibition |
| --- | --- | --- |
| Cc1ccc(C(=O)NNC(=O)C2CCN(c3ncccn3)CC2)cc1 | – | inactive: 16.1% |
| CCOc1ccc2nc(N3C(=O)C(O)=C(C(=O)c4ccco4)C3c3ccco3)sc2c1 (stereo not drawn) | inconclusive [inhibitor, full curve, poor fit] | – |
| CCC(NC(=O)Nc1cc(Cl)ccc1OC)c1c(-n2cccc2)sc2c1CCN(C)C2 (stereo not drawn) | inconclusive [inhibitor, single point] | – |
| Cc1ccc(C)c(NC(=O)CN(C)C(=O)c2cccc(S(=O)(=O)N3CCCC3)c2)c1 | – | inactive: -0.806% |
| S=C1CCC(c2ccc(Br)cc2)=NN1c1ccccc1 | inconclusive [inhibitor, single point] | – |
| O=C(c1ccc(Cl)cc1)c1coc2ccc(O)cc12 | – | inactive: -22.5% |
| CCOC(=O)c1c(CSc2ccccc2)n(C)c2cc(Br)c(OC)c(O)c12 | inconclusive [inhibitor, single point] | – |
| CC1CN(S(=O)(=O)c2cccc(C(=O)N=c3sccn3C)c2)CC(C)O1 (stereo not drawn) | inconclusive [inhibitor, single point] | – |
| Cc1ccc(NC(=O)COc2ncnc3c(Cl)cc(Cl)cc23)cc1[N+](=O)[O-] | inconclusive [inhibitor, single point] | – |
| CCOCc1cn(CC(=O)c2ccc([N+](=O)[O-])cc2)c(C)nc1=N | inconclusive [inhibitor, single point] | – |
| N=c1n(CCO)c2ccccc2n1Cc1ccccc1F | inconclusive [inhibitor, single point] | – |
| COc1ccc2nc(C)c3c(c2c1)OC(C(C)(Cl)Br)C3 (stereo not drawn) | active: 18.4 µM | – |
| Cn1c(N)c(C(=O)CSc2nnc(-c3ccccc3F)n2C2CC2)c(=O)n(C)c1=O | inconclusive [inhibitor, single point] | – |
| COc1ccc(Cn2c(C)nc3c(c(=O)c4ccccc4n3C)c2=O)cc1 | inconclusive [inhibitor, single point] | – |
| COc1ccc(C(=O)c2nccc3cc(OC)c(OC)cc23)cc1OC | inconclusive [inhibitor, single point] | – |
| COc1ccc(CCNC(=O)Nc2cccc([N+](=O)[O-])c2)cc1 | inconclusive [inhibitor, single point] | – |
| Brc1ccc(-c2ccc(/C=N/Nc3nc(N4CCOCC4)nc(N4CCOCC4)n3)o2)cc1 | active: 10.3 µM | – |
| COCCNC(=O)CCC1CCN(Cc2cccc(-c3ccc(C)o3)c2)CC1 | – | inactive: -1.24% |
| CS(=O)(=O)N(CC(=O)N/N=C/c1ccccn1)c1ccc(Oc2ccccc2)cc1 | inconclusive [inhibitor, single point] | – |
| O=C(CSc1c2c(nc3ccc(Cl)cc13)CCCC2)NCc1ccccc1Cl | active: 23.1 µM | – |
| COc1ccccc1OCC(=O)N/N=C/c1cccc2cccnc12 | active: 20.6 µM | – |
| Cc1ccc(S(=O)(=O)N/N=C/c2c(F)cccc2Cl)cc1 | inconclusive [inhibitor, single point] | – |
| O=c1ccc(-c2nc3ccccc3n2Cc2ccccc2Cl)c[nH]1 | inconclusive [inhibitor, partial curve] | – |

| Compound | Potency | activity change, negative = growth inhibition |
| --- | --- | --- |
| COCCSc1ccccc1C(=O)NCC1CCCO1 (stereo not drawn) | inconclusive [inhibitor, single point] | – |
| O=S(=O)(c1ccccc1)c1cnn(-c2ccccc2)c1-c1ccc(Cl)cc1 | inconclusive [inhibitor, single point] | – |
| Cc1ccc(C)c(NC(=O)C(Sc2nc3ccccc3c(=O)n2CC(C)C)c2ccccc2)c1 (stereo not drawn) | active: 2.59 µM | – |
| CCOC(=O)CSc1nc2ccc(C)cc2[nH]1 | – | inactive: -12.5% |
| CC1(C)Cc2ccccc2C(NN=C2CCCC2)=N1 | – | inactive: -28.6% |
| COc1cc(OC)cc(C(=O)N(CCCN2C(=O)c3cccc4cccc(c34)C2=O)c2cccc(OC)c2)c1 | inconclusive [inhibitor, single point] | – |
| CCC(Sc1nc2ccccc2c2nc(CCn3c(C)nc4ccccc43)nn12)C(=O)Nc1ccc(F)cc1 (stereo not drawn) | active: 2.31 µM | – |
| O=C(Nc1sc2c(c1C(=O)O)CCCCC2)c1ccccc1 | inconclusive [inhibitor, single point] | – |
| O=[N+]([O-])c1cccc(CON=Cc2cc(Cl)ccc2O)c1 | inconclusive [inhibitor, single point] | – |
| CCn1c(=O)cc(SCC(=O)Nc2cccc(SC)c2)c2ccccc21 | inconclusive [inhibitor, single point] | – |
| CCOC(=O)C1=C(C)Nc2ncnn2C1c1cccnc1 (stereo not drawn) | – | inactive: -6.46% |
| Cc1cccc(N2CCN(C(=O)COc3ccc4c(c3)CCC4)CC2)c1C | – | inactive: -6.11% |
| COc1ccc(Br)c(C(=O)Nc2cc3c(cc2N2CCCC2)n(C)c(=O)c(=O)n3C)c1 | active: 20.6 µM | – |
| O=C1CC(c2ccccc2)CC(O)=C1C=Nc1ccccc1 (stereo not drawn) | – | inconclusive: -33.1% [inhibitor] |
| CCOc1ccccc1Nc1ncnc2ccc(Br)cc12 | inconclusive [inhibitor, partial curve] | – |
| CC(=O)c1ccc(-c2ccc(C(=O)NC3CC(C)(C)NC(C)(C)C3)o2)cc1 | inconclusive [inhibitor, single point] | – |
| CCN(CC)c1ccc(S(=O)(=O)N2CCOCC2)cc1NC(=O)COC(=O)/C=C/c1ccc(O)c(OC)c1 | active: 20.6 µM | – |
| O=C(CSc1nnnn1C1CC2C=CC1C2)Nc1ccc(C(=O)O)cc1 (stereo not drawn) | – | inactive: -0.196% |
| S=C(NC1CCCCC1)N1CCN(Cc2ccccc2Cl)CC1 | inconclusive [inhibitor, single point] | – |
| CCOc1cccc(C(=O)Nc2nnc(S(=O)(=O)N(C)c3ccc(C)cc3)s2)c1 | active: 23.1 µM | – |
| Cc1c(C(=O)OC2CCCC2C)[nH]c2c1C(=O)CCC2 (stereo not drawn) | inconclusive [inhibitor, partial curve] | – |
| COc1ccc(NC(=O)CC2C(=O)N(c3ccccc3)C(=O)N2CCC2=CCCCC2)cc1 (stereo not drawn) | inconclusive [inhibitor, single point] | – |
